From paper doi:10.1101/2021.07.23.453429 (bioRxiv, 2021) come the findings set out here.

For the test, the target named is cyclophilin D (UniProt P30405). Description: SPR. A general note: Surface plasmon resonance follows binding to a sensor surface in real time, without labels.
UniProt P30405, sequence (P30405 43-207): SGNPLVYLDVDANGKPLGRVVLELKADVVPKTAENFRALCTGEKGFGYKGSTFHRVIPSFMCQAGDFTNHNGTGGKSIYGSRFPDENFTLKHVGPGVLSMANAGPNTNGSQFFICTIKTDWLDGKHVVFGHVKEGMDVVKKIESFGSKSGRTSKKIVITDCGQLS

B1: p53 NTD […] (domain or fragment)
chain: not shown
Take B1: the Kd – broadly, the constant that tells how readily two partners part at equilibrium – was around 6 µM.
